Test results reported in PubChem BioAssay AID651820 (National Center for Advancing Translational Sciences (NCATS), 2012).
Out of some 340,000 compounds screened, about 12,000 (3.5%) were called active. This list was built around the results that the source calls inconclusive (neither active nor inactive); the mix of calls is not that of the screen. Calls follow the shape of the dose curve; as a rule, active = well fitted inhibition curve with a large enough effect; inconclusive = small, poorly fitted or top-dose-only effect, or another doubt; inactive = no such curve, though single readings can be large or run the other way. No potency is given beside an inconclusive call; the fits are too rough.

assay: qHTS Assay for Inhibitors of Hepatitis C Virus (HCV); details: Huh7.5.1 HCVcc-Cre (HCVcc is cell-culture hepatitis C virus) infection, luciferase reporter, 44 h; activity change, negative = inhibition: at 41.8 µM (top of the series) unless noted
How it was run: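 Antiviral activity was scored by luciferase reporter output from cells infected with HCVcc-Cre (~0.5 moi) in presence of compound, 44 h infection period, cells seeded 1,000/well 4 h prior.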
% is scaled to controls: 0 for no effect and ±100 for the full control effect; potency is read from the fitted curve at half-maximal effect; tags tell the direction and shape of the fitted curve.

Q: Which Potency does the source give for `O=[N+]([O-])c1ccc(NCCNCCOc2nonc2-c2ccccc2)c([N+](=O)[O-])c1` here?
A: inconclusive [inhibitor, single point]

Q: For `N#Cc1c(N2CCN(C(=O)c3ccccc3)CC2)nc(-c2ccccc2)c2c1CCCC2`, which Potency is on record?
A: inconclusive [inhibitor, partial curve]

Q: Which Potency does the source give for `COc1ccc(-c2cc(C(=O)Nc3cc(C)nn3-c3ccccc3)no2)cc1OC` here?
A: inconclusive [inhibitor, partial curve]

Q: With `C/C(=N\Nc1ccc([N+](=O)[O-])cc1)c1ccc(N2CCOCC2)cc1` as the molecule, how does the Potency read?
A: inconclusive [inhibitor, single point]

Q: With `Cc1cc(-c2csc3nc[nH]c(=S)c23)cc(C)c1C` as the molecule, how does the Potency read?
A: inconclusive [inhibitor, partial curve]

Q: With `COc1ccc(-c2nc3c(c(SCC(=O)N4CCOCC4)n2)Cc2c(CO)cnc(C)c2O3)cc1` as the molecule, how does the Potency read?
A: inconclusive [inhibitor, partial curve]

Q: For `CC(=O)c1cccc(NC(=S)Nc2cccc3ccccc23)c1`, which “activity change, negative = inhibition” value is on record?
A: inactive: -10.4%

Q: With `COc1ccc(C)c2sc(=NC(=O)c3ccccc3)n(C)c12` as the molecule, how does the Potency read?
A: inconclusive [inhibitor, partial curve]

Q: With `CCOC(=O)c1c(C)n(Cc2ccc(F)cc2)c2ccc(O)cc12` as the molecule, how does the Potency read?
A: inconclusive [inhibitor, single point]

Q: With `COc1cc(C(=O)N2CCN(c3cccc(C)c3C)CC2)cc(OC)c1OC` as the molecule, how does the Potency read?
A: inconclusive [inhibitor, full curve, poor fit]

Q: With `Cc1ccc(N2CCN(C(=O)C3CCN(S(=O)(=O)c4cccc5nsnc45)CC3)CC2C)cc1` (configuration not stated) as the molecule, how does the Potency read?
A: inconclusive [inhibitor, single point]

Q: With `C/C(=N/Nc1nc(-c2ccccc2)cc(-c2ccccc2)n1)c1ccc(N)cc1` as the molecule, how does the “activity change, negative = inhibition” value read?
A: inactive: -17.4%

Q: With `CCN(Cc1ccc(NC(C)=O)cc1)CC1CCCN(CCc2cccc(OC)c2)C1` (configuration not stated) as the molecule, how does the Potency read?
A: inconclusive [inhibitor, partial curve]

Q: Which “activity change, negative = inhibition” value does the source give for `COc1ccc2c(CCNC(=O)c3ccco3)c[nH]c2c1` here?
A: inactive: 4.2%

Q: Which Potency does the source give for `CCn1c(CCNC(=O)c2ccc(OC)c(OC)c2)nc2ccccc21` here?
A: inconclusive [inhibitor, partial curve]

Q: Which “activity change, negative = inhibition” value does the source give for `COC(=O)c1cc2ccsc2n1Cc1ccccc1F` here?
A: inactive: -11.4%

Q: Which Potency does the source give for `Cc1cc(OCC(=O)Nc2ccccc2N2CCOCC2)c(C(C)C)cc1Cl` here?
A: inconclusive [inhibitor, single point]

Q: With `CCN1CCN(c2ccc(S(=O)(=O)N3CCCCC3)cc2NC(=O)c2cccc(Cl)c2)CC1` as the molecule, how does the Potency read?
A: inconclusive [inhibitor, partial curve]

Q: For `CCCNC(=O)c1nn2c(C(F)(F)F)cc(-c3ccccc3)nc2c1Br`, which Potency is on record?
A: inconclusive [inhibitor, full curve]

Q: For `COc1ccc(-n2c(/C=C/c3ccc4c(c3)OCO4)nc3ccccc3c2=O)cc1`, which Potency is on record?
A: inconclusive [inhibitor, single point]

Q: With `CC(=O)c1ccc(NC(=O)c2ccc3nc(-c4ccco4)c(-c4ccco4)nc3c2)cc1` as the molecule, how does the Potency read?
A: inconclusive [inhibitor, full curve, poor fit]

Q: With `Cc1ccc(NC(=O)CN(C)C(=O)c2cc(-c3cccs3)nn2-c2ccccc2)cc1` as the molecule, how does the Potency read?
A: inconclusive [inhibitor, single point]

Q: For `CN1CCN(S(=O)(=O)c2ccc(N3CCN(c4ccccc4Cl)CC3)nc2)CC1`, which Potency is on record?
A: inconclusive [inhibitor, single point]

Q: For `Cc1nn(-c2ccccc2)c(N2CCCC2)c1/C=N/NC(=O)c1cc(-c2ccccc2)nc2ccccc12`, which Potency is on record?
A: inconclusive [inhibitor, partial curve]

Q: With `O=C(NC(=S)Nc1ccc(NC(=O)c2cccs2)cc1)c1ccco1` as the molecule, how does the Potency read?
A: inconclusive [inhibitor, full curve]

Q: With `Cc1cc(/C=C(\C#N)C(N)=O)c(C)n1-c1ccc(N2CCOCC2)c([N+](=O)[O-])c1` as the molecule, how does the Potency read?
A: inconclusive [inhibitor, partial curve]

Q: Which “activity change, negative = inhibition” value does the source give for `O=C(NCc1ccccc1F)c1cccs1` here?
A: inactive: 8.74%

Q: With `CCc1nonc1NC(=O)c1oc2cc(C)c(C)cc2c1C` as the molecule, how does the Potency read?
A: inconclusive [inhibitor, partial curve]

Q: With `CCOc1cc(/C=N/NC(N)=O)cc(Br)c1OCc1ccccc1F` as the molecule, how does the Potency read?
A: inconclusive [inhibitor, partial curve, poor fit]

Q: Which Potency does the source give for `O=C(c1nn2c(C(F)(F)F)cc(-c3cccs3)nc2c1Br)N1CCCc2ccccc21` here?
A: inconclusive [inhibitor, single point]

Q: With `C=CS(=O)(=O)c1c2cc(OC)ccc2nc2ccc(OC)cc12` as the molecule, how does the Potency read?
A: inconclusive [inhibitor, single point]

Q: Which “activity change, negative = inhibition” value does the source give for `CN(CC(=O)Nc1ccccc1Cl)C(=O)COC(=O)C1CCN(c2ccc(C(F)(F)F)cn2)CC1` here?
A: inactive: 7.86%

Q: Which Potency does the source give for `O=C1C=C(NCc2ccccc2)c2ccccc2C1=O` here?
A: inconclusive [inhibitor, single point]

Q: Which “activity change, negative = inhibition” value does the source give for `O=C(NCc1ccccc1F)C1CCCN(S(=O)(=O)N2CCOCC2)C1` (configuration not stated) here?
A: inactive: 14.7%

Q: Which Potency does the source give for `CN(C)NC(=S)Nc1ccc2nc(-c3ccccn3)c(-c3ccccn3)nc2c1` here?
A: inconclusive [inhibitor, single point]

Q: With `OCCCCCN=c1cc(-c2ccccc2)oc2ccc(Cl)cc12` as the molecule, how does the Potency read?
A: inconclusive [inhibitor, single point]

Q: With `CCOc1ccc2nc(Cl)c(CN(C(=O)c3cnccn3)C3CCCC3)cc2c1` as the molecule, how does the Potency read?
A: inconclusive [inhibitor, full curve, poor fit]

Q: For `Cc1ccccc1Nc1nc(CSc2nnc(-c3ccoc3C)n2C)cs1`, which “activity change, negative = inhibition” value is on record?
A: inactive: -0.0894%

Q: For `Cc1ccccc1C(=O)N1CCN(c2ccc(NC(=O)CSc3ccc(Cl)cc3)cc2)CC1`, which Potency is on record?
A: active: 11.2 µM

Q: Which “activity change, negative = inhibition” value does the source give for `COc1cccc(OCc2cc(C(=O)N(Cc3nccn3C)C(C)C)no2)c1` here?
A: inactive: -4.52%

Q: For `CCOc1ccc(C=NNC(=O)c2cccc3ccccc23)cc1OCC`, which Potency is on record?
A: inconclusive [inhibitor, partial curve]

Q: For `O=C(c1cc2cc(Br)ccc2[nH]1)N1CCC2(CC1)OCCO2`, which “activity change, negative = inhibition” value is on record?
A: inactive: 10.4%
